Source: the supplement of paper PMC12217912
The other results are listed elsewhere or left out. The full chains were built here from the parent and the listed change. Inactive controls read about 0.05.

B1: TEV protease; numbered along this chain (parent)
chain: MGESLFKGPRDYNPISSSICHLTNESDGHTTSLYGIGFGPFIITNKHLFRRNNGTLVVQSLHGVFKVKDTTTLQQHLVDGRDMIIIRMPKDFPPFPQKLKFREPQREERICLVTTNFQTKSMSSMVSDTSCTFPSGDGIFWKHWIQTKDGQCGSPLVSTRDGFIVGIHSASNFTNTNNYFTSVPKNFMELLTNQEAQQWVSGWRLNADSVLWGGHKVFMVKPEEPFQPVKEATQL

Variants of: B1
Assay: raw area under fraction-flipped curve 0-4 h after induction (AUC4h, not background-subtracted), DNA-recorder readout of cleavage of the substrate (dimensionless); higher = more cleavage of the substrate by the protease variant
Settings: temperature: 34 °C; time window: 0-4 h after rhamnose induction
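Also: Bxb1 expression induced with 0.2% (w/v) L-rhamnose at OD600 near 0.5, cultures sampled hourly, flipped fraction per protease–substrate barcode pair counted by paired-end Illumina sequencing.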

| Variant | area with substrate CNLYFQS | area with substrate DNLYFQS | area with substrate GNLYFQS | area with substrate HNLYFQS | area with substrate INLYFQS | area with substrate LNLYFQS | area with substrate MNLYFQS | area with substrate SNLYFQS | area with substrate TNLYFQS | area with substrate WNLYFQS | area with substrate YNLYFQS | area with substrate NNLYFQS | area with substrate FNLYFQS | area with substrate KNLYFQS | area with substrate PNLYFQS | area with substrate QNLYFQS | area with substrate RNLYFQS | area with substrate VNLYFQS |
| --- | --- | --- | --- | --- | --- | --- | --- | --- | --- | --- | --- | --- | --- | --- | --- | --- | --- | --- |
| MGESLFKGPRDYNPISSSICHLTNESDGHTTSLYGIGFGPFIITNKHLFRRNNGTLVVQSLHGVFKVKDTTTLQQHLVDGRDMIIIRMPKDFPPFPQKLKFREPQREERICLVTTNFQTKSMSSMVSDTSCTLPSGDGIFWKHWIQTKDGQCGSPLVSTRDGFIVGIHSASNFTNTNNYFTSVPKNFMELLTNQEAQQWVSGWRLNADSVLWGGHKVFMVKPEEPFQPVKEATQL [F133L] | 0.0704 | 0.0746 | 0.0729 | 0.0684 | 0.0492 | 0.0633 | 0.0646 | 0.0676 | 0.0738 | 0.0437 | 0.0881 |  |  |  |  |  |  |  |
| MGESLFKGPRDYNPISSSICHLTNESDGHTTSLYGIGFGPFIITNKHLFRRNNGTLVVQSLHGVFKVKDTTTLQQHLVDGRDMIIIRMPKDFPPFPQKLKFREPQREERICLVTTNFQTKSMSSMVSDTSCTMPSGDGIFWKHWIQTKDGQCGSPLVSTRDGFIVGIHSASNFTNTNNYFTSVPKNFMELLTNQEAQQWVSGWRLNADSVLWGGHKVFMVKPEEPFQPVKEATQL [F133M] | 0.0195 | 0.0817 |  | 0.074 | 0.0623 | 0.062 | 0.0583 | 0.06 | 0.0776 | 0.0797 | 0.0644 | 0.0657 |  |  |  |  |  |  |
| MGESLFKGPRDYNPISSSICHLTNESDGHTTSLYGIGFGPFIITNKHLFRRNNGTLVVQSLHGVFKVKDTTTLQQHLVDGRDMIIIRMPKDFPPFPQKLKFREPQREERICLVTTNFQTKSMSSMVSDTSCTPPSGDGIFWKHWIQTKDGQCGSPLVSTRDGFIVGIHSASNFTNTNNYFTSVPKNFMELLTNQEAQQWVSGWRLNADSVLWGGHKVFMVKPEEPFQPVKEATQL [F133P] | 0.035 | 0.0593 |  | 0.0453 | 0.0506 | 0.0673 | 0.0568 | 0.0554 | 0.0568 | 0.06 | 0.0614 |  | 0.049 | 0.0421 | 0.0564 | 0.0613 |  |  |
| MGESLFKGPRDYNPISSSICHLTNESDGHTTSLYGIGFGPFIITNKHLFRRNNGTLVVQSLHGVFKVKDTTTLQQHLVDGRDMIIIRMPKDFPPFPQKLKFREPQREERICLVTTNFQTKSMSSMVSDTSCTFQSGDGIFWKHWIQTKDGQCGSPLVSTRDGFIVGIHSASNFTNTNNYFTSVPKNFMELLTNQEAQQWVSGWRLNADSVLWGGHKVFMVKPEEPFQPVKEATQL [P134Q] | 0.0483 | 0.0856 |  |  |  | 0.0556 |  | 0.0635 |  | 0.0664 |  |  |  |  | 0.0408 |  |  |  |
| MGESLFKGPRDYNPISSSICHLTNESDGHTTSLYGIGFGPFIITNKHLFRRNNGTLVVQSLHGVFKVKDTTTLQQHLVDGRDMIIIRMPKDFPPFPQKLKFREPQREERICLVTTNFQTKSMSSMVSDTSCTFWSGDGIFWKHWIQTKDGQCGSPLVSTRDGFIVGIHSASNFTNTNNYFTSVPKNFMELLTNQEAQQWVSGWRLNADSVLWGGHKVFMVKPEEPFQPVKEATQL [P134W] | 0.049 | 0.0414 |  | 0.0297 | 0.0659 | 0.0464 |  | 0.0477 | 0.0595 | 0.0501 | 0.0417 |  |  |  | 0.0332 |  | 0.0447 |  |
| MGESLFKGPRDYNPISSSICHLTNESDGHTTSLYGIGFGPFIITNKHLFRRNNGTLVVQSLHGVFKVKDTTTLQQHLVDGRDMIIIRMPKDFPPFPQKLKFREPQREERICLVTTNFQTKSMSSMVSDTSCTFPFGDGIFWKHWIQTKDGQCGSPLVSTRDGFIVGIHSASNFTNTNNYFTSVPKNFMELLTNQEAQQWVSGWRLNADSVLWGGHKVFMVKPEEPFQPVKEATQL [S135F] | 0.0681 | 0.0577 |  | 0.072 | 0.0392 | 0.0597 | 0.0589 | 0.0671 | 0.0641 | 0.0628 | 0.0595 | 0.07 | 0.0633 |  | 0.0478 |  | 0.0714 | 0.0561 |
| MGESLFKGPRDYNPISSSICHLTNESDGHTTSLYGIGFGPFIITNKHLFRRNNGTLVVQSLHGVFKVKDTTTLQQHLVDGRDMIIIRMPKDFPPFPQKLKFREPQREERICLVTTNFQTKSMSSMVSDTSCTFPKGDGIFWKHWIQTKDGQCGSPLVSTRDGFIVGIHSASNFTNTNNYFTSVPKNFMELLTNQEAQQWVSGWRLNADSVLWGGHKVFMVKPEEPFQPVKEATQL [S135K] | 0.0667 | 0.0437 | 0.067 | 0.0554 | 0.0612 |  | 0.058 | 0.0688 | 0.043 | 0.0539 | 0.0482 |  |  |  | 0.0661 | 0.0565 |  | 0.0514 |
| MGESLFKGPRDYNPISSSICHLTNESDGHTTSLYGIGFGPFIITNKHLFRRNNGTLVVQSLHGVFKVKDTTTLQQHLVDGRDMIIIRMPKDFPPFPQKLKFREPQREERICLVTTNFQTKSMSSMVSDTSCTFPNGDGIFWKHWIQTKDGQCGSPLVSTRDGFIVGIHSASNFTNTNNYFTSVPKNFMELLTNQEAQQWVSGWRLNADSVLWGGHKVFMVKPEEPFQPVKEATQL [S135N] | 0.0617 | 0.0544 | 0.0596 | 0.0612 |  | 0.0241 | 0.0562 | 0.0658 | 0.0493 | 0.066 | 0.0607 | 0.068 |  | 0.0553 | 0.0541 | 0.0767 | 0.0472 |  |
| MGESLFKGPRDYNPISSSICHLTNESDGHTTSLYGIGFGPFIITNKHLFRRNNGTLVVQSLHGVFKVKDTTTLQQHLVDGRDMIIIRMPKDFPPFPQKLKFREPQREERICLVTTNFQTKSMSSMVSDTSCTFPSCDGIFWKHWIQTKDGQCGSPLVSTRDGFIVGIHSASNFTNTNNYFTSVPKNFMELLTNQEAQQWVSGWRLNADSVLWGGHKVFMVKPEEPFQPVKEATQL [G136C] | 0.0673 | 0.0833 |  | 0.0663 | 0.0526 |  | 0.0665 | 0.0749 | 0.051 | 0.0558 | 0.0556 | 0.0685 |  | 0.0566 | 0.0778 |  | 0.0673 |  |
| MGESLFKGPRDYNPISSSICHLTNESDGHTTSLYGIGFGPFIITNKHLFRRNNGTLVVQSLHGVFKVKDTTTLQQHLVDGRDMIIIRMPKDFPPFPQKLKFREPQREERICLVTTNFQTKSMSSMVSDTSCTFPSDDGIFWKHWIQTKDGQCGSPLVSTRDGFIVGIHSASNFTNTNNYFTSVPKNFMELLTNQEAQQWVSGWRLNADSVLWGGHKVFMVKPEEPFQPVKEATQL [G136D] | 0.0667 | 0.072 | 0.0728 | 0.0694 | 0.059 | 0.0446 | 0.0808 | 0.0648 | 0.0737 | 0.0616 |  | 0.0559 | 0.0422 | 0.0386 | 0.0524 |  |  |  |
